This is one part of the list. Cut-off read from the data, not from the text of the source: active = 3.2 or more and inactive = the rest. Most of these values are background signal.
B1: NF1_Y2503_T2507I_YF (peptide)
chain: KGSEGYLAAIF
B2: NF1_Y2503_YF (peptide)
chain: KGSEGYLAATF
B3: NF1_Y2508 (peptide)
chain: YLAATYPTVGQ
B4: NF1_Y2508_T2507I_YF (peptide)
chain: FLAAIYPTVGQ
B5: NF1_Y491 (peptide)
chain: TRSYKYLLLSM
B6: NF1_Y491_Y491C_YF (peptide)
chain: TRSFKCLLLSM
B7: NFKB2_Y868 (peptide)
chain: KEDSAYGSQSV
B8: NFKB2_Y868_A867V (peptide)
chain: KEDSVYGSQSV
B9: NFKB2_Y868_D865G (peptide)
chain: KEGSAYGSQSV
B10: NGEF_Y288 (peptide)
chain: TSEASYYKSLN
B11: NGEF_Y288_YF (peptide)
chain: TSEASYFKSLN
B12: NGEF_Y289_A286S (peptide)
chain: SESSYYKSLNL
B13: NGEF_Y289_A286S_YF (peptide)
chain: SESSFYKSLNL
B14: NID2_Y449 (peptide)
chain: IVLRSYPASGH
B15: NIPBL_Y195_P192L (peptide)
chain: SHLSSYTTHPQ
B16: NIPBL_Y247 (peptide)
chain: GSSEDYLHMVH
B17: NKAP_Y104_R106C_YF (peptide)
chain: VFFGSYSCPFG
B18: NKAPL_Y91_Y96C (peptide)
chain: SWSTSYSGYRC
B19: NKAPL_Y91_YF (peptide)
chain: SWSTSYSGFRF

These binders were tested against SHP2 C-SH2 domain E139D (assay: enrichment score (SH2-bound / input frequency) (ratio); bacterial display of known human phosphotyrosine sites (pTyr-Var adds point mutants) read by sequencing; higher = stronger binding; tyrosines were phosphorylated by kinases first). Conditions: peptide library: pTyr-Var.
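Note: displayed peptides selected on beads carrying the immobilized SH2 domain, with library peptides lacking any tyrosine serving as negative controls.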

Row | Binder | enrichment score
1 | B1 | inactive: 0.532
2 | B2 | inactive: 0.792
3 | B3 | inactive: 0.714
4 | B4 | inactive: 1.77
5 | B5 | active: 4.76
6 | B6 | inactive: 1.96
7 | B7 | inactive: 0.462
8 | B8 | inactive: 0.491
9 | B9 | inactive: 0.579
10 | B10 | inactive: 0.672
11 | B11 | inactive: 0.463
12 | B12 | inactive: 0.858
13 | B13 | inactive: 0.654
14 | B14 | inactive: 1.02
15 | B15 | inactive: 0.946
16 | B16 | inactive: 0.837
17 | B17 | inactive: 1.11
18 | B18 | inactive: 0.947
19 | B19 | inactive: 1.66

What follows are binders tested against SHP2 C-SH2 domain wild-type in the same assay as above. Conditions: peptide library: pTyr-Var.

Row | Binder | enrichment score
20 | B1 | inactive: 0.652
21 | B2 | inactive: 0.53
22 | B3 | inactive: 0.806
23 | B4 | inactive: 1.35
24 | B5 | active: 4.85
25 | B6 | inactive: 1.92
26 | B7 | inactive: 0.452
27 | B8 | inactive: 0.517
28 | B9 | inactive: 0.661
29 | B10 | inactive: 0.577
30 | B11 | inactive: 0.491
31 | B12 | inactive: 0.893
32 | B13 | inactive: 0.944
33 | B14 | inactive: 0.843
34 | B15 | inactive: 1.21
35 | B16 | inactive: 0.713
36 | B17 | inactive: 1.17
37 | B18 | inactive: 1
38 | B19 | inactive: 1.83

These binders were tested against SHP2 N-SH2 domain L43F in the same assay as above. Conditions: peptide library: pTyr-Var.

Row | Binder | enrichment score
39 | B1 | inactive: 0.455
40 | B2 | inactive: 0.818
41 | B3 | inactive: 0.712
42 | B4 | inactive: 1.59
43 | B5 | active: 5.31
44 | B6 | inactive: 1.56
45 | B7 | inactive: 0.496
46 | B8 | inactive: 0.659
47 | B9 | inactive: 0.613
48 | B10 | inactive: 0.521
49 | B11 | inactive: 0.41
50 | B12 | inactive: 0.724
51 | B13 | inactive: 0.771
52 | B14 | inactive: 0.989
53 | B15 | inactive: 0.984
54 | B16 | inactive: 0.663
55 | B17 | inactive: 0.913
56 | B18 | inactive: 0.75
57 | B19 | inactive: 1.7

These binders were tested against SHP2 N-SH2 domain T42A in the same assay as above. Conditions: peptide library: pTyr-Var.

Row | Binder | enrichment score
58 | B1 | inactive: 0.566
59 | B2 | inactive: 0.558
60 | B3 | inactive: 0.967
61 | B4 | inactive: 1.68
62 | B5 | active: 9.74
63 | B6 | inactive: 1.69
64 | B7 | inactive: 0.541
65 | B8 | inactive: 0.392
66 | B9 | inactive: 0.46
67 | B10 | inactive: 0.509
68 | B11 | inactive: 0.409
69 | B12 | inactive: 1.09
70 | B13 | inactive: 0.561
71 | B14 | inactive: 0.947
72 | B15 | inactive: 0.7
73 | B16 | inactive: 0.613
74 | B17 | inactive: 1.12
75 | B18 | inactive: 0.87
76 | B19 | inactive: 1.62

These binders were tested against SHP2 N-SH2 domain T52S in the same assay as above. Conditions: peptide library: pTyr-Var.

Row | Binder | enrichment score
77 | B1 | inactive: 0.564
78 | B2 | inactive: 0.568
79 | B3 | inactive: 0.96
80 | B4 | inactive: 1.89
81 | B5 | active: 6.08
82 | B6 | inactive: 1.64
83 | B7 | inactive: 0.507
84 | B8 | inactive: 0.439
85 | B9 | inactive: 0.538
86 | B10 | inactive: 0.524
87 | B11 | inactive: 0.437
88 | B12 | inactive: 0.722
89 | B13 | inactive: 0.64
90 | B14 | inactive: 1.07
91 | B15 | inactive: 0.808
92 | B16 | inactive: 0.815
93 | B17 | inactive: 0.861
94 | B18 | inactive: 0.68
95 | B19 | inactive: 1.76

These binders were tested against SHP2 N-SH2 domain wild-type in the same assay as above. Conditions: peptide library: pTyr-Var.

Row | Binder | enrichment score
96 | B1 | inactive: 0.582
97 | B2 | inactive: 0.746
98 | B3 | inactive: 0.801
99 | B4 | inactive: 1.31
100 | B5 | active: 4.18
101 | B6 | inactive: 1.98
102 | B7 | inactive: 0.527
103 | B8 | inactive: 0.486
104 | B9 | inactive: 0.437
105 | B10 | inactive: 0.492
106 | B11 | inactive: 0.475
107 | B12 | inactive: 0.757
108 | B13 | inactive: 0.907
109 | B14 | inactive: 0.943
110 | B15 | inactive: 0.979
111 | B16 | inactive: 0.86
112 | B17 | inactive: 1.21
113 | B18 | inactive: 1.09
114 | B19 | inactive: 1.47
